Experiments:
[1] = target: T1, mouse MOG overexpressed on cells (293T-mMOG, K562-mMOG) (mouse, UniProt Q61885 29-246); test: flow cytometry, scFv_hFc titrated on 293T-mMOG cells
T1 construct: whole, on cells
T1 sequence (looked up): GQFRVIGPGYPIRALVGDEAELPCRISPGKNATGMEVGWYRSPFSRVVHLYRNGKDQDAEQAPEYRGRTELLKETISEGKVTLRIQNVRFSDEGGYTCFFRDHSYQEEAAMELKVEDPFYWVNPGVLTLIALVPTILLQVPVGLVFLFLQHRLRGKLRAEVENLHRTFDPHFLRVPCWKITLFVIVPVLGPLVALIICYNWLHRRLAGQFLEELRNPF

[2] = target: T2, recombinant hMOG_his (human, UniProt Q16653 30-154, limits assumed); test: ELISA, hMOG_his coated at 2 µg/ml, scFv_hFc titrated, anti-huFc-HRP detection
T2 construct: also called human MOG antigen; not shown: His tag
T2 sequence: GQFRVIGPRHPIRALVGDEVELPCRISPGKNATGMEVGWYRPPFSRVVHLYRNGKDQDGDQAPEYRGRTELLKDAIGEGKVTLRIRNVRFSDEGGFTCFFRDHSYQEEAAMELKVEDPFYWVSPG

[3] = target: T3, human MOG overexpressed on cells (293T-hMOG, K562-hMOG) (human, UniProt Q16653 30-247); test: flow cytometry, scFv_hFc titrated on 293T-hMOG cells
T3 construct: Cells overexpressing human MOG built by conventional techniques; also called K562-huMOG
T3 chain: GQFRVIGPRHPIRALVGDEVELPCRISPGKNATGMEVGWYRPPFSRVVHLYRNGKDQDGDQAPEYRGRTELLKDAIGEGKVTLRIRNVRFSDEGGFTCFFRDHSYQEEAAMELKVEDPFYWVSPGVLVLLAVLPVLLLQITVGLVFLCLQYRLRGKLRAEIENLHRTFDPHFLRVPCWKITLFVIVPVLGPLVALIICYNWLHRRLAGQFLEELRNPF

EC50 [1]: 130 nM | EC50 [2]: 0.135 nM | EC50 [3]: 12.5 nM
B1: A9 (scFv_hFc form) (Fc fusion)
chain: [here about 100 residues without letters]PSLADWGDMDYWGQGTLVTVSSGGGGSGGGGSGGGGSDIQMTQSPSTLSASVGDRVTITCRASQSISSWLAWYQQKPGKAPKLLIYDASSLESGVPSRFSGSGSGTEFTLTISSLQPDDFATYYCQQYDQYWTFGQGTKVEIKR
notes: also called A9 scFv-Fc; not shown: human Fc (hFc)
